These are yes or no findings as the source states them, for the method shown. Binding seen in cells or lysates may run through a third protein. Some binding calls cover weakened binding; strength is not graded here.
What was measured:
[1] = target: nonmuscle myosin IIB (endogenous NMIIB heavy chain) (human (endogenous in HEK293T)) (UniProt P35580); test: co-IP; HEK293T cells transfected with one GFP construct; endogenous NMIIB precipitated with anti-NMIIB antibody on protein A/G beads, 4 °C; extraction buffer 20 mM Tris-HCl pH 8.0, 225 mM NaCl, 0.5 mM EDTA, 1% NP-40, 5% glycerol, 1 mM DTT; blot with anti-NMIIB and anti-GFP; for GFP-Aurora-B also after 100 nM AZD1152-HQPA for 1 h (DMSO as control)
[2] = target: nonmuscle myosin IIB (endogenous NMIIB heavy chain) (human (endogenous in HEK293T)) (UniProt P35580); test: co-IP; HEK293T cells cotransfected with GFP-Aurora-B and GFP-survivin or GFP-survivin^L6A/W10A; endogenous NMIIB precipitated with anti-NMIIB antibody; blot with anti-NMIIB and anti-GFP

Sequences of proteins named here, by UniProt entry; tags and fusion partners are left off. A change or cut given only in a name is not applied to a line headed by its entry.
UniProt P35580: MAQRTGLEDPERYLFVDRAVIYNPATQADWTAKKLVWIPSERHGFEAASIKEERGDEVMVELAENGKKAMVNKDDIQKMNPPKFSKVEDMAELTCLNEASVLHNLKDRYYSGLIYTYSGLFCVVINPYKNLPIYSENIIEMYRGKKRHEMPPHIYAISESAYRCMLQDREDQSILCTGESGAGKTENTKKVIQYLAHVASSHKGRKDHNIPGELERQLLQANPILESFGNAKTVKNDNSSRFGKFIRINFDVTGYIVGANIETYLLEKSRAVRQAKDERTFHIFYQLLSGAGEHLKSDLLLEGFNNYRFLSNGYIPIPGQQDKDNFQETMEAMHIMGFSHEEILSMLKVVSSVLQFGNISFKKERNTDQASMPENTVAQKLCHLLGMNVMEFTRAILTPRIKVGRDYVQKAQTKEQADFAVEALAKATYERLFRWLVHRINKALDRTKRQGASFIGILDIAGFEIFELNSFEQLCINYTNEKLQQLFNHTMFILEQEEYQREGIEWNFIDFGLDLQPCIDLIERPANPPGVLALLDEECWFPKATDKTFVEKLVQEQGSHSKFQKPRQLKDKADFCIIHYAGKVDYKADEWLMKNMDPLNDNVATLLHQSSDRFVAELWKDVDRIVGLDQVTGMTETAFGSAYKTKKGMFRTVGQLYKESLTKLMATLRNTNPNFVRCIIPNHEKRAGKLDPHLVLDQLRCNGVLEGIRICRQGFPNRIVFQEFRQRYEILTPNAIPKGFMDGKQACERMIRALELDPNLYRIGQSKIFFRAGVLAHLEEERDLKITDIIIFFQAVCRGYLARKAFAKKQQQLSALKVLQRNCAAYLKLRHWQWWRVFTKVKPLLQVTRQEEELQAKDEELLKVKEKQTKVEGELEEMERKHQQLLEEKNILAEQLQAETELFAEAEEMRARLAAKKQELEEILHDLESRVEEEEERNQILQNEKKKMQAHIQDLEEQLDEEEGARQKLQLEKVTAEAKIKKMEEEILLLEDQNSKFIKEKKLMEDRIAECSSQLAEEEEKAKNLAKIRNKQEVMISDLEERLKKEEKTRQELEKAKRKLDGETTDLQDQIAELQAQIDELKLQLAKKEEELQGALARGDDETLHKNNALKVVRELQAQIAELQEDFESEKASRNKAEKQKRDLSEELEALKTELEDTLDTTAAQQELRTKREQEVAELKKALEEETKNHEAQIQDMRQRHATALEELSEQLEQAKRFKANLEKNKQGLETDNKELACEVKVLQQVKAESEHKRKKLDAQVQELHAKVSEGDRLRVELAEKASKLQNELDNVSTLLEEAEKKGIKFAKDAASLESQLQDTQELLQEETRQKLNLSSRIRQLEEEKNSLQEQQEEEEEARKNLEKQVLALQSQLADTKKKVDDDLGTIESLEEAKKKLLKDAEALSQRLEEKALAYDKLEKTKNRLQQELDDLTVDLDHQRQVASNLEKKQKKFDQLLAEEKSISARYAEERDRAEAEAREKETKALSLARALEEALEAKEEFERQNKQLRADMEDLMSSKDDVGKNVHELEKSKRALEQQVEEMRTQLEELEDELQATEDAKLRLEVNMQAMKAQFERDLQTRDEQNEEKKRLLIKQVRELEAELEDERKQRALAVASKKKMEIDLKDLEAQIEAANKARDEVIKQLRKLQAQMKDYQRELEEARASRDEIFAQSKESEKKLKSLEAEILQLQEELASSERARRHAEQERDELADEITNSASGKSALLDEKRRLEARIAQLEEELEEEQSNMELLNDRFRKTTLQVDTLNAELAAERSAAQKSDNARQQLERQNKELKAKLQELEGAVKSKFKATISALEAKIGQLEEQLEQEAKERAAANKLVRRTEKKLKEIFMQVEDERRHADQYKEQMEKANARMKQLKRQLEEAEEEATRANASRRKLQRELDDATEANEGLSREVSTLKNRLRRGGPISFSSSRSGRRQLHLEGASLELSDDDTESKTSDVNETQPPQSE
UniProt O15392: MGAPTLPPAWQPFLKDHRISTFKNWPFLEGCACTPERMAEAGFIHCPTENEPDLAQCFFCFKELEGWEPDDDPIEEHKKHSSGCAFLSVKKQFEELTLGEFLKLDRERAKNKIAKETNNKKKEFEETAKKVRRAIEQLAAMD
UniProt Q96GD4: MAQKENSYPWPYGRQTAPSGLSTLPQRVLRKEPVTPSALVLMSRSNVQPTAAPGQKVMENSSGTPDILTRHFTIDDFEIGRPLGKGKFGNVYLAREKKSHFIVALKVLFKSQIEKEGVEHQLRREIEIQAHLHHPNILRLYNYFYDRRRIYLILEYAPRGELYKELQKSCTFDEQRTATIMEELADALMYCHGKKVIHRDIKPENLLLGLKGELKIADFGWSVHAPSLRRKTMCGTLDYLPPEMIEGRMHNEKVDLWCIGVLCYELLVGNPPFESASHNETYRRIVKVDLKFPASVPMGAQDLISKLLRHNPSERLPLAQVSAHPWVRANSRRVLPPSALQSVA

Substance	binding [1]	binding [2]
GFP-survivin^T117D (from UniProt O15392 1-142)	binds	–
GFP-survivin^L6A/W10A (from UniProt O15392 1-142)	–	no binding
GFP-Aurora-B^K106R (from UniProt Q96GD4 1-344) (enzyme)	binds	–
GFP-survivin^T117A (from UniProt O15392 1-142)	binds	–
GFP-survivin (from UniProt O15392 1-142)	binds	binds
GFP-Aurora-B (from UniProt Q96GD4 1-344) (enzyme)	binds	binds

From article PMC8385403
